This is one part of the list. Antibody binding of pooled human sera (four to six donors per pool; dilution not stated) to peptides of the Trypanosoma cruzi antigen TSSA on microarrays. Quantile-normalised fluorescence in arbitrary units, mean of duplicate arrays; higher = more binding. No active / inactive call. The uninfected pools are read here as the healthy donors of the same country. The strongest signals lie near the top of the scale (about 60,000).
What was measured:
Experiment in all cases: antibody binding signal (normalised fluorescence) (arbitrary fluorescence units); higher = stronger serum antibody binding to peptide
[1] = system: pooled sera of chronic Chagas disease patients, Argentina
Description: (§1)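 Microarray of 15-residue peptides over residues 30-55 of Trypanosoma cruzi TSSAII, each with 1 to 10 substitutions at naturally variable positions, probed with one serum pool per country.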

[2] = system: pooled sera of chronic Chagas disease patients, Bolivia
Description: as §1

[3] = system: pooled sera of chronic Chagas disease patients, Brazil
Description: as §1

[4] = system: pooled sera of chronic Chagas disease patients, Colombia
Description: as §1

[5] = system: pooled sera of chronic Chagas disease patients, Mexico
Description: as §1

[6] = system: pooled sera of chronic Chagas disease patients, USA
Description: as §1

[7] = system: pooled sera of uninfected people, Argentina
Description: as §1

[8] = system: pooled sera of uninfected people, Bolivia
Description: as §1

[9] = system: pooled sera of uninfected people, Brazil
Description: as §1

[10] = system: pooled sera of uninfected people, Colombia
Description: as §1

[11] = system: pooled sera of uninfected people, Mexico
Description: as §1

[12] = system: pooled sera of uninfected people, USA
Description: as §1

| Sequence | antibody binding signal [1] | antibody binding signal [2] | antibody binding signal [3] | antibody binding signal [4] | antibody binding signal [5] | antibody binding signal [6] | antibody binding signal [7] | antibody binding signal [8] | antibody binding signal [9] | antibody binding signal [10] | antibody binding signal [11] | antibody binding signal [12] |
| --- | --- | --- | --- | --- | --- | --- | --- | --- | --- | --- | --- | --- |
| SGKDKKTAAGGAPSQ | 375 | 347 | 457 | 4330 | 811 | 1030 | 107 | 155 | 144 | 216 | 96 | 119 |
| STPPSGTEKKPAAGG | 44200 | 4510 | 43600 | 909 | 40700 | 13800 | 1850 | 934 | 506 | 157 | 426 | 1590 |
| GTDNKTAAGETPSPS | 252 | 309 | 29500 | 325 | 497 | 2250 | 176 | 613 | 1360 | 176 | 420 | 2220 |
| KEKKTATGETPSQPG | 549 | 314 | 21100 | 427 | 317 | 4680 | 229 | 172 | 104 | 123 | 155 | 117 |
| SGKEKKTATGETPSQ | 3380 | 377 | 4680 | 1510 | 2080 | 8650 | 347 | 257 | 107 | 136 | 198 | 75.5 |
| GTENKAAAGGTPSPS | 38100 | 399 | 525 | 3490 | 697 | 1380 | 133 | 370 | 1530 | 557 | 193 | 141 |
| KAAAGEAPSQPGASS | 8950 | 31000 | 45100 | 245 | 209 | 7830 | 244 | 426 | 114 | 117 | 190 | 187 |
| SGKEKKAATGGAPSQ | 4730 | 266 | 2400 | 2880 | 6390 | 4910 | 265 | 134 | 102 | 241 | 85 | 96.8 |
| KENKAAAGEAPSQSG | 310 | 5720 | 21500 | 165 | 176 | 11600 | 107 | 143 | 86.8 | 119 | 91.5 | 94.9 |
| GKEKKAATGGTPSPS | 2750 | 297 | 416 | 2310 | 5180 | 3000 | 135 | 91.2 | 186 | 221 | 75.7 | 112 |
| NKTATGGTPSPSGAS | 627 | 991 | 4600 | 650 | 723 | 775 | 755 | 953 | 472 | 968 | 246 | 1400 |
| GKENKPATGETPSQS | 38500 | 17600 | 35700 | 5840 | 8300 | 31700 | 853 | 715 | 344 | 150 | 2040 | 146 |
| GTDKKAATGGAPSQS | 545 | 245 | 562 | 1340 | 1250 | 853 | 297 | 561 | 102 | 513 | 255 | 137 |
| EKKTAAGEAPSQPGA | 5040 | 8480 | 35200 | 548 | 365 | 6500 | 315 | 1360 | 132 | 990 | 351 | 1060 |
| TEKKPATGGTPSPSG | 1690 | 627 | 680 | 3260 | 1200 | 1630 | 229 | 496 | 1280 | 307 | 199 | 917 |
| PPSGTDNKTAAGGTP | 34500 | 26400 | 46900 | 2890 | 1790 | 3550 | 390 | 789 | 2220 | 363 | 1780 | 325 |
| PPSGKDKKTATGEAP | 8700 | 2420 | 3430 | 1200 | 17800 | 15000 | 324 | 418 | 111 | 275 | 188 | 131 |
| SGKEKKPAAGGAPSQ | 8400 | 2150 | 5230 | 6490 | 7620 | 6450 | 206 | 129 | 220 | 103 | 97.3 | 235 |
| SGTEKKAATGEAPSQ | 21300 | 34200 | 30000 | 293 | 454 | 25200 | 560 | 528 | 355 | 550 | 155 | 175 |
| GTDNKTAAGEAPSPP | 212 | 342 | 28500 | 227 | 278 | 9430 | 147 | 545 | 1190 | 177 | 114 | 134 |
| TDNKPATGETPSPPG | 33400 | 31600 | 35200 | 274 | 148 | 26100 | 207 | 427 | 345 | 158 | 1900 | 1520 |
| NKTAAGGAPSQSGAS | 346 | 252 | 2360 | 5230 | 2120 | 467 | 885 | 1200 | 666 | 318 | 661 | 1240 |
| TISTPPSGKEKKAAT | 12700 | 181 | 302 | 343 | 21500 | 599 | 371 | 263 | 120 | 226 | 81.5 | 144 |
| KKTAAGETPSPSGAS | 214 | 219 | 361 | 296 | 262 | 2330 | 265 | 201 | 102 | 264 | 90.3 | 288 |
| TEKKTAAGGAPSQPG | 648 | 999 | 1650 | 9320 | 791 | 1470 | 221 | 168 | 214 | 295 | 446 | 293 |

| Sequence | antibody binding signal [1] | antibody binding signal [2] | antibody binding signal [3] | antibody binding signal [4] | antibody binding signal [5] | antibody binding signal [6] | antibody binding signal [7] | antibody binding signal [8] | antibody binding signal [9] | antibody binding signal [10] | antibody binding signal [11] | antibody binding signal [12] |
| --- | --- | --- | --- | --- | --- | --- | --- | --- | --- | --- | --- | --- |
| GTDKKPATGGAPSPS | 1250 | 3280 | 3210 | 6740 | 2020 | 2860 | 304 | 905 | 149 | 146 | 593 | 202 |
| SGTDKKPAAGEAPSQ | 1680 | 17000 | 30900 | 9290 | 824 | 14700 | 111 | 226 | 139 | 353 | 2770 | 136 |
| KENKAATGEAPSQPG | 27300 | 27300 | 40000 | 213 | 324 | 22900 | 284 | 163 | 137 | 123 | 102 | 202 |
| SGKEKKTATGGTPSQ | 2870 | 462 | 2160 | 3610 | 4070 | 4690 | 240 | 84.7 | 120 | 186 | 114 | 112 |
| GTDNKTATGGAPSPP | 490 | 357 | 23300 | 669 | 441 | 852 | 373 | 526 | 1550 | 206 | 188 | 209 |
| KKTATGETPSPSGAS | 306 | 478 | 1270 | 209 | 388 | 3580 | 417 | 336 | 176 | 180 | 121 | 590 |
| PSGKDKKAATGGTPS | 2460 | 332 | 1950 | 4440 | 4050 | 3640 | 153 | 139 | 139 | 164 | 71.3 | 89.4 |
| TDKKPATGGAPSQPG | 1620 | 3070 | 18700 | 3090 | 1410 | 1550 | 261 | 992 | 228 | 164 | 280 | 190 |
| DNKAATGGAPSQPGA | 777 | 3850 | 25000 | 636 | 460 | 1820 | 381 | 224 | 411 | 289 | 401 | 244 |
| TDNKTATGGAPSPSG | 575 | 553 | 662 | 580 | 384 | 559 | 267 | 384 | 326 | 176 | 260 | 218 |
| EKKAAAGEAPSQSGA | 3480 | 4950 | 9570 | 434 | 416 | 10200 | 138 | 1300 | 119 | 93.7 | 180 | 1020 |
| TEKKAATGEAPSQSG | 24400 | 37300 | 30700 | 356 | 609 | 26200 | 645 | 176 | 243 | 766 | 298 | 285 |
| TENKTATGEAPSPSG | 22400 | 31400 | 18800 | 107 | 144 | 20800 | 121 | 118 | 205 | 177 | 117 | 129 |
| TPPSGKENKAAAGGT | 19300 | 1150 | 1740 | 1540 | 5980 | 3910 | 3470 | 1210 | 1280 | 628 | 153 | 205 |
| SGKENKAATGETPSP | 4590 | 6050 | 24700 | 1710 | 1790 | 17200 | 7260 | 3110 | 169 | 707 | 484 | 1080 |
| TISTPPSGTDNKPAT | 42200 | 43200 | 47600 | 5010 | 10700 | 27000 | 1330 | 720 | 524 | 297 | 1010 | 524 |
| TPPSGTDNKAATGEA | 30100 | 33600 | 43200 | 915 | 4820 | 11500 | 572 | 461 | 450 | 164 | 167 | 149 |
| GTEKKTATGEAPSPS | 10800 | 16000 | 10800 | 599 | 988 | 21000 | 240 | 544 | 220 | 116 | 138 | 126 |
| TENKTAAGGAPSQPG | 25800 | 4570 | 8490 | 4650 | 561 | 1310 | 371 | 173 | 590 | 167 | 454 | 231 |
| TDKKAATGGTPSPPG | 1200 | 526 | 321 | 2070 | 617 | 1040 | 218 | 144 | 610 | 1060 | 116 | 126 |
| PPSGTEKKAAAGGAP | 31300 | 932 | 13200 | 5420 | 3080 | 2890 | 1080 | 369 | 267 | 279 | 151 | 290 |
| KDKKTAAGGTPSQPG | 248 | 210 | 248 | 3440 | 185 | 1360 | 249 | 91.7 | 232 | 189 | 162 | 116 |
| TPPSGKEKKPATGEA | 33200 | 2960 | 16100 | 379 | 40800 | 11600 | 712 | 1290 | 142 | 558 | 156 | 469 |
| SGTDKKTATGETPSP | 317 | 806 | 1550 | 1280 | 273 | 8070 | 302 | 241 | 226 | 178 | 290 | 694 |
| TDNKPATGGAPSPSG | 2380 | 19900 | 6400 | 391 | 367 | 2820 | 241 | 1050 | 435 | 207 | 412 | 171 |
